From publication PMC4336329 (PLoS ONE, 2015)
In all, about 310,000 compounds went through this assay and about 14,000 (4.5%) showed an effect of 50% or more. Effects have a minus sign here. Some of the results follow.

Molecular target: human ether-à-go-go-related gene (hERG) potassium channel (human, UniProt Q12809)
Assay: primary screen, population patch clamp on CHO cells stably expressing hERG
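Also: peak tail current of the secondary pulse compared with the same well before compound.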

Chain of human ether-à-go-go-related gene (hERG) potassium channel (Q12809 whole entry, looked up): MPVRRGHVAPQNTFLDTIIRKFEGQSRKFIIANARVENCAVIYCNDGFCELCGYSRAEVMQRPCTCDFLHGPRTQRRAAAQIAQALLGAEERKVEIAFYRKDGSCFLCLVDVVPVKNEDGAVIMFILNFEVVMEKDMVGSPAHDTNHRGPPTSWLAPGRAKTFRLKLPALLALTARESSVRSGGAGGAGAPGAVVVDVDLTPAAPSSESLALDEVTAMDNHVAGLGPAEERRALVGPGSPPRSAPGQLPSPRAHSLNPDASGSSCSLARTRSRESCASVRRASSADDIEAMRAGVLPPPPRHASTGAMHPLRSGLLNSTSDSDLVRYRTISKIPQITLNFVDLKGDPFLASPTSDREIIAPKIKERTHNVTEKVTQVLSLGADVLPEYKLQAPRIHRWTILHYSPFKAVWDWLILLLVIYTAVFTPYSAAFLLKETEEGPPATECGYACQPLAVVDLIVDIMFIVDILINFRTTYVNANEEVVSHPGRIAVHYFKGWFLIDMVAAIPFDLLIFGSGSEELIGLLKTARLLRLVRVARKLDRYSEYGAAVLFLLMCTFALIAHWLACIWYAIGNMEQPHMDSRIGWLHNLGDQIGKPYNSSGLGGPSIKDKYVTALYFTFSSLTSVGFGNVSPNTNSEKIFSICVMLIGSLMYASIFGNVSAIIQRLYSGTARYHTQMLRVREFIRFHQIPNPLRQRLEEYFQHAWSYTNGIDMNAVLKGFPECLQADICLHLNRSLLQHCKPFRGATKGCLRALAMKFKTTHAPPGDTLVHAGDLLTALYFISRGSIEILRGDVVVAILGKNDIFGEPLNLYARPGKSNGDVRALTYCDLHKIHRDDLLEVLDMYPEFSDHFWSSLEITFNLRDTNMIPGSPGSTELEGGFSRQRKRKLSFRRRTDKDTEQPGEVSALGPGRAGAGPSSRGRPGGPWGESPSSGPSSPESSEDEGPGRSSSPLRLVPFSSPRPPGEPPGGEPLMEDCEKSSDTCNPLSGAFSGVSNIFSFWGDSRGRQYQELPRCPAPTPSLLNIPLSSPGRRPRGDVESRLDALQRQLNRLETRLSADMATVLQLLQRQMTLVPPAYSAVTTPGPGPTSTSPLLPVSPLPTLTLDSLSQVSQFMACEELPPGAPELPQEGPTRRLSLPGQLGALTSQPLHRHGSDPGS

SMILES	hERG current change (%, negative = inhibition) at 10uM [%]
CC(/C=N/NC(=O)Cn1nccc1C)=C\c1ccc(C(C)C)cc1	-4.51
COc1cc2[nH]c(=O)c(C(=O)NCCCN3CCCCC3)c(O)c2cc1OC.Cl	-13.7
O=S(=O)(NCc1cn2ccsc2n1)c1cccs1	15.6
Cc1nc2cc(-c3cccs3)[nH]n2c(=O)c1C	11.7
COCC(=O)Nc1cccc(Br)c1	-1.19
C=CCOC(=O)C(=O)/C=C/c1csc2ccccc12	20.7
CCCCC(Br)C(=O)Nc1ccc(S(=O)(=O)Nc2cc(C)nc(C)n2)cc1 (stereo not shown)	8.47
FC(F)(F)c1cc(Oc2ccc(Cl)cc2)ncc1-c1nnc(-c2ccc(Cl)cc2)o1	5.81
COc1ccc(CCN2C(=NC(=O)CCC(=O)O)SC3CS(=O)(=O)CC32)cc1OC (stereo not shown)	-3.16
Cc1cc(O)ccc1N/C=C/c1onc(C)c1[N+](=O)[O-]	29.9
CCOc1ccc(C=O)cc1CN1CCCCC1.Cl	-14.7
CCC1CN(C(=O)NCc2cccc(OC)c2)c2ccccc2O1 (stereo not shown)	-11.1
Cn1c(NCc2ccco2)nc2c1c(=O)n(Cc1ccc(Cl)cc1Cl)c(=O)n2C	3.42
O=S(=O)(c1cccc(-c2nnc(SCc3ccc(Cl)cc3)o2)c1)N1CCCCC1	10.7
COc1ccc2c(=O)c3c(=O)n(Cc4ccco4)c(C(C)C)nc3oc2c1	5.12
CCN=C1S/C(=C\c2cc(Br)ccc2OCC(=O)OCC)C(=O)N1CC	-0.0973
COc1ccc(CCC(C)NCc2ccc(F)cc2)cc1 (stereo not shown)	-44.8
COc1ccc(-n2nnnc2SC(C)C(N)=O)cc1 (stereo not shown)	8.68
CCCN(CCC)CCCNC(=S)Nc1ccc2nc(N3CCN(CC)CC3)cc(C)c2c1	-3.08
O=C1Cc2ccccc2C(c2c(Cl)cccc2Cl)N1 (stereo not shown)	-1.82
COC(=O)Cn1cc([N+](=O)[O-])nc1C	32.3
Nn1c(SCC(=O)Nc2ccc3c(c2)OCCO3)nnc1-c1cccnc1	0.314

SMILES	hERG current change (%, negative = inhibition) at 10uM [%]
COc1ccc(CC(=O)N2CCN(C(=O)c3ccco3)CC2)cc1	10.9
COc1ccc(C)cc1NC(=O)CO/N=C(\N)CC(=O)Nc1ccccc1OC	-3.14
Cc1ccc(NC(=S)N(CCCN(C)C)Cc2cc3cc4c(cc3[nH]c2=O)OCO4)cc1	-41.7
COc1cccc(CCN2CCC(CNS(=O)(=O)c3cc(-c4cc(C)no4)ccc3C)CC2)c1	-77.2
NC(=O)C1(N2CCCCC2)CCN(c2nc(-c3ccc(Br)cc3)cs2)CC1	-7.11
O=C(CNC(=O)C12CC3CC(CC(C3)C1)C2)N1CCN(S(=O)(=O)/C=C/c2ccccc2)CC1	-10.5
Cc1ccc(-c2nc3c(c(=O)c4ccccc4n3C)c(=O)n2-c2ccc(F)cc2)cc1	14.2
O=C(/C=C/c1ccccc1)/C=C/c1ccccc1	8.17
O=C(O)c1ccc2c(c1)S(=O)(=O)c1cc(Cl)ccc1C2=O	19.5
O=C(NC(=S)Nc1cccc(C(F)(F)F)c1)c1csnn1	31.4
O=C(c1ccco1)N1CCN(C(=O)C2c3ccccc3Oc3ccccc32)CC1	17.5
Cc1ccc(CS(=O)(=O)CCC(=O)NCCCN2CCCC2=O)cc1	14.7
Cc1cc(NC(=O)c2cc([N+](=O)[O-])cc([N+](=O)[O-])c2C)no1	15.7
c1ccc2c(c1)CCCN2Cc1nnnn1CC1CCCO1 (stereo not shown)	7.06
COc1ccc(N(C(=O)c2cccc([N+](=O)[O-])c2)S(=O)(=O)c2cccs2)cc1	-1.14
CCN(CC)C(=O)CSc1nnc(CCN)o1.Cl	18.5
COc1ccc(NC(=O)c2cc3c(COC(C)=O)cnc(C)c3oc2=Nc2cccc(C(=O)O)c2)c(OC)c1	18.8
CCOC(=O)c1ccc(Oc2nc(SC)nc(N(C)C)n2)cc1	-20.7
O=C(O)C(F)(F)F.O=C1C(Cc2ccccc2)Nc2ncnc(N3CCc4ccccc4C3)c2N1Cc1ccc(Br)cc1 (stereo not shown)	19.6
c1ccc(Cn2nnnc2C(c2ccncc2)N2CCOCC2)cc1 (stereo not shown)	-2.65
Cc1ccc(Nc2nc(Cl)nc(NC(C)(C)C)n2)cc1	-0.766
